# From PubChem BioAssay AID624417 (National Center for Advancing Translational Sciences (NCATS), 2012)
# Several values for one entry are separate records, joined by “and”; a condition that tells them apart may be missing. Equal values may be shown once. The campaign covered roughly 410,000 compounds. About 6,400 (1.6%) were called active. This list was built around the results that the source calls inconclusive (neither active nor inactive); the mix of calls is not that of the screen. Calls follow the shape of the dose curve; as a rule, active = well fitted inhibition curve with a large enough effect; inconclusive = small, poorly fitted or top-dose-only effect; inactive = no such curve, though single readings can be large or run the other way. Potencies of inconclusive entries are doubtful fits and often do not repeat.
# Target: Glucagon-like peptide 1 receptor (Homo sapiens) (UniProt P43220)
# UniProt P43220, sequence (P43220 whole entry, looked up): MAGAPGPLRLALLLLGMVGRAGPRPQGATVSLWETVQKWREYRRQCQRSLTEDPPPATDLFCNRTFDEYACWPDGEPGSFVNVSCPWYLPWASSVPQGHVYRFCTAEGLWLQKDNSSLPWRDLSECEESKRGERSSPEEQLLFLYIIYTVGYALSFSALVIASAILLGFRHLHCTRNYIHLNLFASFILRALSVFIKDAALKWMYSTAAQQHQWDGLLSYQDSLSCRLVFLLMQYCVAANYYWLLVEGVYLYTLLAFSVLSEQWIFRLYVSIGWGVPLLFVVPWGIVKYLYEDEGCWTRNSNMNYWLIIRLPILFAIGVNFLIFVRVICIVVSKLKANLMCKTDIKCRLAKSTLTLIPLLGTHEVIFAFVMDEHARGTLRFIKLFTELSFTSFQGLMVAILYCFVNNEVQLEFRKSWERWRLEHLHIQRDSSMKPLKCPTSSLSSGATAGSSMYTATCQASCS
# Assay: qHTS of GLP-1 Receptor Inverse Agonists (Inhibition Mode); also: nearly all actives have a fitted effect of over 55% in size
# Settings: HEK293 GLP-1R CRE-luciferase, luminescence, 24 h, GLP-1R form is constitutively active; series mostly up to 38.3 µM
# Procedure, shortened: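 Seeding at 200 cells/uL, 12 h culture, 24 hr compound treatment, then luciferase reagent and a luminescence read; cells are HEK293 stably expressing a constitutively active GLP-1R plus cAMP-responsive luciferase.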
# Potency is read from the fitted curve at half-maximal effect; tags tell the direction and shape of the fitted curve.
row,SMILES,Potency
1,O=C(CCc1ccccc1)c1ccc2c(c1)OCCCO2,inactive
2,Cc1c(Br)cc(C(=O)NCCCN2CCOCC2)c(C)c1C,inactive
3,CCCCN(CCCC)CC(O)COc1ccccc1Br (stereo not drawn),"inconclusive: 28.2 µM [inhibitor, single point]"
4,COCCN(C(=S)Nc1ccccc1OC)C1CCN(C(C)C)CC1,inactive
5,CCc1nnc(NC(=O)C23CC4CC(CC(C4)C2)C3)s1,"inconclusive: 0.501 µM [inhibitor, full curve, poor fit]"
6,CN(Cc1ccccc1)C(=O)COc1ccc(C(C)(C)C)cc1,"inconclusive: 10 µM [inhibitor, partial curve, poor fit]"
7,O=c1[nH]c(C2CCN(S(=O)(=O)c3ccccc3)CC2)nc2c1nnn2Cc1c(F)cccc1Cl,"inconclusive: 28.2 µM [inhibitor, single point]"
8,CC(C)c1ccc(CC(=O)N2CCC2(C)C(=O)Nc2cnc3ccccc3c2)cc1 (stereo not drawn),"inconclusive: 7.08 µM [inhibitor, partial curve]"
9,CCN1CCN(c2c(/C=C3\SC(=S)N(Cc4ccco4)C3=O)c(C)c(C#N)c(=O)n2C)CC1,"inconclusive: 8.91 µM [inhibitor, partial curve, poor fit]"
10,Fc1ccccc1Nc1c2c(nc3ccccc13)CCC2,"inconclusive: 22.4 µM [inhibitor, single point]"
11,COc1ccc(OC)c2c(C)cc(N3CCN(C(=O)c4ccc(F)cc4)CC3)nc12,"inconclusive: 25.1 µM [inhibitor, single point]"
12,Clc1ccccc1Sc1ccc(-c2ccccn2)s1,"inconclusive: 28.2 µM [inhibitor, single point]"
13,Cc1cc(OCC(O)CN2CCN(c3ccccn3)CC2)cc(C)c1Cl (stereo not drawn),active: 11.2 µM
14,CCOc1cc(/C=N/NC(=O)c2nn(C)cc2Br)ccc1OCc1ccccc1Cl,"inconclusive: 4.47 µM [inhibitor, partial curve]"
15,CCOc1cccc(-c2c(C(=O)N/N=C(\C)c3ccncc3)nnn2-c2nonc2N)c1,"inconclusive: 10 µM [inhibitor, partial curve, poor fit]"
16,c1ccc2oc(SCc3cn4ccccc4n3)nc2c1,inactive
17,COc1ccccc1OCCNC(=O)c1ccc(C(C)(C)C)cc1,"inconclusive: 28.2 µM [inhibitor, single point]"
18,O=C(Nc1ccccc1)c1cnc(N2CCCCC2)c2ccccc12,"inconclusive: 28.2 µM [inhibitor, single point]"
19,CC1CCN(C(=O)Cn2c(=O)n(Cc3ccc4c(c3)OCO4)c(=O)c3ccccc32)CC1,"inconclusive: 28.2 µM [inhibitor, single point]"
20,Cc1ccccc1NC(=O)NCCc1c[nH]c2ccccc12,"inconclusive: 5.62 µM [inhibitor, partial curve]"
21,COc1ccc(-c2cc(C)no2)cc1S(=O)(=O)N1CCN(c2cccc(C)c2)C(C)C1 (stereo not drawn),"inconclusive: 12.6 µM [inhibitor, single point] and inconclusive: 8.91 µM [inhibitor, partial curve]"

row,SMILES,Potency
1,COc1ccc(OCC(O)CNC(=O)Nc2ccc(Cl)cc2)cc1 (stereo not drawn),"inconclusive: 28.2 µM [inhibitor, single point]"
2,COc1ccc(CC2(CO)CCN(Cc3cccn3-c3ccccn3)CC2)cc1,"inconclusive: 15.8 µM [inhibitor, single point]"
3,OC(c1cccc(Cl)c1)c1nc(-c2ccc(F)c(Cl)c2)cs1 (stereo not drawn),"inconclusive: 28.2 µM [inhibitor, single point]"
4,CCOC(=O)c1scc(-c2ccccc2)c1S(=O)(=O)N1CCN(c2ccc(Cl)cc2)CC1,"inconclusive: 10 µM [inhibitor, partial curve]"
5,CCN(CC)c1cc(C)c2cc(NC(=O)c3ccc(OC)c(OC)c3)ccc2n1,"inconclusive: 11.2 µM [inhibitor, single point]"
6,CCOC(=O)C1(Cc2cccc(Cl)c2)CCCN(C(=O)c2ccc(COC)s2)C1 (stereo not drawn),"inconclusive: 22.4 µM [inhibitor, partial curve, poor fit]"
7,O=C(CSc1ccc(Cl)cc1)Nc1ccc(N2CCN(C(=O)c3ccco3)CC2)cc1,"inconclusive: 10 µM [inhibitor, single point]"
8,Cc1ccc(NC(=O)c2ccc(NC(=O)N3CCSc4ncccc43)cc2)c(Cl)c1,inactive
9,O=C1C(N2CCOCC2)=C(n2nnc3ccccc32)C(=O)c2ccccc21,"inconclusive: 8.91 µM [inhibitor, partial curve, poor fit]"
10,NNc1ccc([N+](=O)[O-])c2[nH][nH]c(=O)c12,"inconclusive: 31.6 µM [inhibitor, single point]"
11,O=C(Nc1ccc(Cl)cc1)c1cnn2c1NC(c1ccccc1)=CC2c1ccccc1 (stereo not drawn),"inconclusive: 28.2 µM [inhibitor, single point]"
12,COc1ccc(C(=O)NN/C=C/C(=O)c2ccc(Br)cc2)cc1,"inconclusive: 11.2 µM [inhibitor, partial curve, poor fit]"
13,COc1ccccc1C(=O)NCCOc1ccc(C(C)(C)C)cc1,"inconclusive: 28.2 µM [inhibitor, single point]"
14,Cc1nnc(-c2ccc(Cl)cc2)nc1NCCN(C)C,inactive
15,COc1cccc(CN(C(=O)COc2ccc(Cl)c(C)c2)C2CCS(=O)(=O)C2)c1 (stereo not drawn),"inconclusive: 15.8 µM [inhibitor, single point]"
16,O=C(NCc1ccccc1)c1ccc2c(c1)N(Cc1ccccc1F)C(=O)c1ccccc1S2=O (stereo not drawn),"inconclusive: 10 µM [inhibitor, single point]"
17,Cc1ccc2c(c1)CCCN2CC(=O)Nc1cc(S(=O)(=O)N2CCCC2)ccc1Cl,"inconclusive: 11.2 µM [inhibitor, partial curve, poor fit]"
18,Cc1c(Cl)cccc1-n1ncc(C(=O)NCCN2CCN(C)CC2)c1C1CCN(C(=O)OC(C)(C)C)CC1,inactive
19,O=C(Cn1c(=O)n(-c2ccccc2)c(=O)c2c3c(sc21)CCC3)c1ccc(F)cc1,"inconclusive: 12.6 µM [inhibitor, single point]"
20,CSc1ccc(C2c3[nH]c4ccccc4c3CCN2C(=O)c2ccnn2C)cc1 (stereo not drawn),"inconclusive: 10 µM [inhibitor, partial curve, poor fit]"
21,CCCCNC(=O)C1(C)CCCCN1C(=O)c1ccc(OC)c(C(F)(F)F)c1 (stereo not drawn),inactive

row,SMILES,Potency
1,COc1cc(NC(=O)Cn2nnc(-c3ccccc3N)n2)cc(OC)c1,"inconclusive: 11.2 µM [inhibitor, partial curve, poor fit]"
2,O=c1c2[nH]c3ccccc3c2ncn1CCC1=CCCCC1,inactive
3,CCN(CC)CCCNCC(=O)Nc1ccc2c(c1)CCC2,"inconclusive: 7.94 µM [inhibitor, partial curve]"
4,C=CCN1C2CCCC1CC(NC(=O)Nc1cc(C)cc(C)c1)C2 (stereo not drawn),"inconclusive: 14.1 µM [inhibitor, partial curve, poor fit]"
5,Cc1ccccc1Nc1nn2c(=O)c3ccc(C(=O)NCC(C)c4ccccc4)cc3nc2s1 (stereo not drawn),"inconclusive: 11.2 µM [inhibitor, partial curve, poor fit]"
6,CC1CN(c2ccc([N+](=O)[O-])c(NCCOc3ccccc3)c2)CC(C)N1 (stereo not drawn),"inconclusive: 8.91 µM [inhibitor, partial curve, poor fit]"
7,Cc1ccc(CNc2ccc3c(c2)nc(C)n3C)cc1,"inconclusive: 3.98 µM [inhibitor, partial curve, poor fit]"
8,O=S(=O)(c1ccccc1)N1CCN(Cc2cccc(Br)c2)CC1,"inconclusive: 11.2 µM [inhibitor, single point]"
9,COc1ccc2[nH]c(=O)c(CN(C(=O)C3CCCO3)c3ccc(C)cc3)cc2c1 (stereo not drawn),inactive
10,Cc1oc(-c2ccc(Cl)cc2)nc1CSCC(=O)NC1CCN(Cc2ccccc2)CC1,"inconclusive: 1.58 µM [inhibitor, full curve, poor fit]"
11,Cc1ccc(OCC(=O)N/N=C/c2cccc3cccnc23)cc1,"inconclusive: 28.2 µM [inhibitor, single point]"
12,C=CCN(c1ccc(F)cc1)S(=O)(=O)c1cc(C(=O)NC2CCC(O)CC2)ccc1Cl (stereo not drawn),"inconclusive: 31.6 µM [inhibitor, partial curve, poor fit]"
13,COCCN(Cc1ccccc1)C(=O)c1cccc(S(=O)(=O)N2CCN(Cc3ccccc3)CC2)c1,active: 14.1 µM
14,COc1ccc2c(c1)C1(C)CC(C)(C)N2C(=O)N1c1ccccc1 (stereo not drawn),"inconclusive: 15.8 µM [inhibitor, partial curve, poor fit]"
15,CS(=O)(=O)c1ccc(-n2c(=O)n(Cc3ccccc3)c(=O)c3[nH]cnc32)cc1,inactive
16,CCc1nc(CN2CCCC(C(=O)Nc3ccc(-c4cccc(OC)c4)cc3)C2)c(C)[nH]1 (stereo not drawn),"inconclusive: 14.1 µM [inhibitor, single point]"
17,CC(C)CCNC(=O)c1[nH]c(C(F)(F)F)nc1-c1ccccc1,inactive
18,CCOc1c(Br)cc(C2C=C(C(=O)O)Nc3ncnn32)cc1OC (stereo not drawn),inactive
19,CC(C)(C)N=C1NN=C(c2cc3ccccc3o2)CS1,"inconclusive: 20 µM [inhibitor, single point]"
20,COc1ccc(NC(=O)CN(C)C(=O)c2ccc(COc3ccccc3)cc2)cc1,"inconclusive: 3.55 µM [inhibitor, partial curve, poor fit]"
21,O=C(Nc1ccc2c(c1)CCCN2C(=O)c1cccs1)c1cccc(F)c1,"inconclusive: 11.2 µM [inhibitor, single point]"
